Experimental data as given in the RNAGym collection of RNA variant scans (doi:10.1093/nar/gkz1192).
Read counts are not given, so values of variants with three or more changes are uncertain.

B1: CPEB3 Ribozyme (parent)
chain: UAACAGGGGGCCACAGCAGAAGCGUUCACGUCGCAGCCCCUGUCAGAUUCUGGUGAAUCUGCGAAUUCUGCUGUAUAUCUC

Variants of: B1
Experiment: self-cleavage, relative activity (ratio to wild type); higher = more cleavage; in vitro, sequencing
Method in brief: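 Relative activity was defined as the cleaved/total read fraction for a variant divided by the same fraction for the unmutated ribozyme. CPEB3 self-cleaving ribozyme libraries were made by rounds of error-prone PCR, barcoded, and transcribed in vitro with T7 RNA polymerase for 5 hours at 37°C, and cleavage ran through transcription plus a 15 min DNase I step before EDTA. Illumina sequencing of template-switched reverse transcripts gave the reads, and DNA sequencing mapped the barcodes. Averages come from three batches, using variants with at least 5 reads.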

Variant | self-cleavage
U43C A47G U51A U69C | 0.22
U41C G63U A64G U69C | 0.26
U41C A65G U72C U80C | 0.54
U43C G52A A57U C79G | 1.02
U43C A56G U67C | 0.24
U41C U69C U72C A77G | 0.55
U43C G46U U51A | 0.17
U41C U67C A75G | 0.3
U43A G55C U78A | 1.16
U41C U60C U67A U78C | 0.3
U41C U60A A75G | 0.58
U43C G53U U58C | 0.1
G42A A56G U72C U76A | 0.36
U43A U60A U69A | 0.34
U43C U51C A57C | 0.36
U43C U49C A75G | 0.75
U43C A56G G63U | 0.6
U43C A57G A65G U67G U72C | 0.13
U43A A47G A56G | 0.64
U41C U49C G63U | 0.54
U43A A56G U60C C62U | 0.24
G42A A64G U66C U69A | 0.07
U41C U48A U51C U66C U67A | 0.44
U43A C50U A64G U66A | 0.16

Variant | self-cleavage
U41C U72A A75G | 0.94
U41G A57G A64G | 0.24
U41C U58A C62U A64G | 0.38
U41C G63U A64G | 1.05
U43A U49C A64G U72C | 0.21
U43C U49C C81A | 0.44
U41C A56G A57G A64G | 0.31
G42A A45G U49G | 0.24
U41G A47G A56U A64G U69C A77G | 0.2
U41G U49C G55C U58C | 0.16
U41G U49C A56U U69C | 0.2
U41C A57G U60A U67A | 0.39
U41C U74C C81U | 1.29
U43C U49C U69A | 0.08
U43C A56U A57G U74C | 0.39
U43A A56G U74C U80C | 1.06
U43C A45G U54A C59G | 0.1
U43C A64G U78C | 0.51
G42A U43A U48C A65G U80A | 0.18
U41C U43C U60A | 0.2
U43A C50U U66C U72A | 0.41
U41C U67C U69C | 0.52
U41C A57G U60C | 0.51
U43A C59U G61A A75G | 0.2

Variant | self-cleavage
U43A A45G U54A U74A | 1.23
U43A U69A A77U | 1.03
U41C U69A C81U | 0.97
U41C U54C A57G A65U C79U | 0.12
U41C A47G U54C U72A | 0.64
U43A U54C A56G A57G U67C | 0.08
U41C C62U C71A | 0.17
U43C A57G U74A | 0.65
U41C U51C U69A | 0.85
U41C A56C U58C | 0.19
U41C U43A C44U C62A | 0.29
U41C U51C U60A | 0.44
G42C U60C U67A | 0.12
U41C C50A U67C | 0.24
U43C A57U U78C | 0.14
U41C U60C U67C U76A | 0.36
U43C U54C U76C | 0.31
U41G U69A U80A | 0.07
U43C U48A U69C | 0.52
U41C A47U U51A A56G | 0.41
U41C A65G U72C A77G | 0.68
U43C U51G U54C U60C U67C U72A | 0.02
U41C C62G U72C U78C | 0.13
G42A U51C A57G U58G | 0.13

Variant | self-cleavage
U41C U43C U80C | 0.62
U41C G42A U48C | 0.24
U43A U51C A57G U67C U74C | 0.39
U43C A56G A64G | 0.23
U43C U54G A56G U80A | 0.25
U41C U43C U60A U66C | 0.13
U41C U51A U74C | 1.24
U43A C62U U80C | 0.2
U43C U49A U51C A77U | 0.51
U41C U58C U78G | 0.24
U41C G63C U78A C81U | 1.04
U41C U43G A64U | 0.08
G42A U51A U72C | 0.22
U41G G46C U49C U69A | 0.12
U43A U51A A64U | 0.48
U41C U74G U80G | 1.02
U43A A64U U78C | 0.37
U43C U48C U74C | 0.22
U43A A64G U69C U72C | 0.31
U41G U51A A56G A65U U66C U74C | 0.24
U41C A56U C62G | 0.2
U41G A45U A57G | 0.22
U41C U72A U78C | 1.14
U41C U60A U66C U76C | 0.4

Variant | self-cleavage
U41C C62G U72G | 0.13
U43A U51A A56G | 0.4
U41G U51G U69C | 0.2
U43C A64G U76C | 0.57
U41C U54A U69G | 0.85
U41C U48C U76C | 0.95
U41C U43A A47G G61A | 0.22
U43C A45U U48C | 0.35
G42A U48C G70A U72A | 0.12
U43C A65G A75G | 0.05
G42C U49C U72C U80C | 0.16
G42A A45G U76C C79U | 0.16
U43A U48C U80C | 0.97
U41C U43C U60A U67C | 0.06
U41C A57G U58C | 0.47
U43C U49A A56G U60C | 0.12
U43C A64G A75G | 0.34
U41C U43A C59A U67A | 0.27
U43A A45U G53A U60C A64G | 0.25
U41C U43A U74C A75G | 0.83
U41C G42U A75U U80C | 0.2
U41C C62G A77U | 0.17
U43A U48C A56G U72A U80G | 0.2
U41C U58C U66C U69C | 0.22

Variant | self-cleavage
U43A U48A U51C | 0.81
U41C U74G U78C | 1.25
U43A G46U U60G U69A | 0.15
U43A A56C U60G | 0.21
U43C A47G U78A U80C | 0.39
U43C A47G C62A | 0.26
U43A U48C G61A | 0.25
U43C U48A A77U | 0.29
U43C U49C A57G G61A A77G | 0.2
U41C U60C U74C | 0.97
U43C A47G A56G U69A | 0.09
U43A A65C U78C | 0.14
U41G A57G C62G | 0.14
U43A G61C A65U U72A | 0.39
U41C U49A U51A U58C A77G | 0.17
U43C A56G U74A | 0.68
U41G U51A U76C | 0.27
U43C A47U U72A U74A A75U | 0.09
U41C G52A U54C U60C U80C | 0.68
U43A U54C U72A | 0.46
G42A U43C A56G | 0.13
U41C A64U C71G U78G | 0.16
U41G U66C U78A | 0.29
U43A A47G A56G U80A | 0.84

Variant | self-cleavage
U43A A57G A65U U78C | 0.13
U41C U58G C81U | 0.5
U43C U51A A56U C71U | 0.12
U41C U43C C44U | 0.27
G42A A57G U72A | 0.36
U41C G46A U48G U49C U54A | 0.1
U43C U54C A64G U78C | 0.13
U43C A64G A65U | 0.21
U41C C59U U69A | 0.52
U43A G52C C62A U80C | 0.28
U43C U51A G73A | 1.27
U41C U43A A45G | 0.31
U43C U51A U60C U78A | 0.21
U43C C44U C62U U67C | 0.06
U41C U49C U51A A64G U72A | 0.32
U41C U58A A64C U80C | 0.15
G42A A47G A57G U66C A77G | 0.03
U43C A65G U72A U78A | 0.09
U43C A47U A64U U67C | 0.09
U43A U51C A65G U72A | 0.23
U41C A47G A56G U72A | 0.77
U43A A45U U67C | 0.23
U43C A64U A65G U67C | 0.05
